# Laboratory results: the supplement of paper PMC12217912
# The list shows a part of the results. The full chains were built here from the parent and the listed change. Values near 0.05 are background.
# B1: TEV protease; numbered along this chain (parent)
# chain: MGESLFKGPRDYNPISSSICHLTNESDGHTTSLYGIGFGPFIITNKHLFRRNNGTLVVQSLHGVFKVKDTTTLQQHLVDGRDMIIIRMPKDFPPFPQKLKFREPQREERICLVTTNFQTKSMSSMVSDTSCTFPSGDGIFWKHWIQTKDGQCGSPLVSTRDGFIVGIHSASNFTNTNNYFTSVPKNFMELLTNQEAQQWVSGWRLNADSVLWGGHKVFMVKPEEPFQPVKEATQL
# Variants of: B1
# Experiment: raw area under fraction-flipped curve 0-4 h after induction (AUC4h, not background-subtracted), DNA-recorder readout of cleavage of the substrate (dimensionless); higher = more cleavage of the substrate by the protease variant
# Details: temperature: 34 °C; time window: 0-4 h after rhamnose induction
# Description: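 In vivo DNA recorder in E. coli TOP10(DE3) ΔrhaA at 34 °C. Each TEVp single-site mutant (parent TEVp 0) is paired with a single-site variant of the 7-mer TEVs (canonical ENLYFQ|S). The substrate sits between flexible linkers in a Bxb1-sfGFP-TEVs-SsrA fusion, so cleavage stabilises Bxb1 and speeds flipping of a recombination array, read by NGS. The value is the raw area under the fraction-flipped curve over 0-4 h after rhamnose induction (AUC4h), with ≥20 reads per time point. It is not background-subtracted; inactive controls average about 0.047.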
# 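Further: Bxb1 expression induced with 0.2% (w/v) L-rhamnose at OD600 near 0.5, cultures sampled hourly, flipped fraction per protease–substrate barcode pair counted by paired-end Illumina sequencing.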
Variant,area with substrate ENLYFQA,area with substrate ENLYFQC,area with substrate ENLYFQD,area with substrate ENLYFQF,area with substrate ENLYFQG,area with substrate ENLYFQH,area with substrate ENLYFQI,area with substrate ENLYFQK,area with substrate ENLYFQL,area with substrate ENLYFQM,area with substrate ENLYFQN,area with substrate ENLYFQP,area with substrate ENLYFQQ,area with substrate ENLYFQR,area with substrate ENLYFQS,area with substrate ENLYFQT,area with substrate ENLYFQV,area with substrate ENLYFQW,area with substrate ENLYFQY,area with substrate ENLYFQE
MGESLFKGPRDYNPISSSICHLTNESDGHTTSLYGIGFGPFIITNKHLFRRNNGTLVVQSLHGVFKVKDTTTLQQHLVDGRDMIIIRMPKDFPPFPQKLKFREPQREERICNVTTNFQTKSMSSMVSDTSCTFPSGDGIFWKHWIQTKDGQCGSPLVSTRDGFIVGIHSASNFTNTNNYFTSVPKNFMELLTNQEAQQWVSGWRLNADSVLWGGHKVFMVKPEEPFQPVKEATQL [L112N],0.0747,0.0809,0.0583,0.0664,0.0796,0.055,0.0531,0.0561,0.0238,0.127,0.0595,0.0584,0.0597,0.0573,0.0801,0.0541,0.0588,0.0569,–,–
MGESLFKGPRDYNPISSSICHLTNESDGHTTSLYGIGFGPFIITNKHLFRRNNGTLVVQSLHGVFKVKDTTTLQQHLVDGRDMIIIRMPKDFPPFPQKLKFREPQREERICQVTTNFQTKSMSSMVSDTSCTFPSGDGIFWKHWIQTKDGQCGSPLVSTRDGFIVGIHSASNFTNTNNYFTSVPKNFMELLTNQEAQQWVSGWRLNADSVLWGGHKVFMVKPEEPFQPVKEATQL [L112Q],0.076,0.0645,0.0712,0.0678,–,–,–,0.0768,0.0602,0.0547,0.0562,–,0.0492,0.0586,0.0786,0.0594,0.0752,0.0573,–,–
MGESLFKGPRDYNPISSSICHLTNESDGHTTSLYGIGFGPFIITNKHLFRRNNGTLVVQSLHGVFKVKDTTTLQQHLVDGRDMIIIRMPKDFPPFPQKLKFREPQREERICSVTTNFQTKSMSSMVSDTSCTFPSGDGIFWKHWIQTKDGQCGSPLVSTRDGFIVGIHSASNFTNTNNYFTSVPKNFMELLTNQEAQQWVSGWRLNADSVLWGGHKVFMVKPEEPFQPVKEATQL [L112S],0.0674,0.0783,–,0.0636,0.0863,0.061,0.0588,0.0499,0.0702,0.0686,0.065,–,–,–,0.0781,0.054,0.0567,0.0473,0.0559,–
MGESLFKGPRDYNPISSSICHLTNESDGHTTSLYGIGFGPFIITNKHLFRRNNGTLVVQSLHGVFKVKDTTTLQQHLVDGRDMIIIRMPKDFPPFPQKLKFREPQREERICWVTTNFQTKSMSSMVSDTSCTFPSGDGIFWKHWIQTKDGQCGSPLVSTRDGFIVGIHSASNFTNTNNYFTSVPKNFMELLTNQEAQQWVSGWRLNADSVLWGGHKVFMVKPEEPFQPVKEATQL [L112W],0.0714,0.0768,0.0658,–,0.0844,0.0593,0.0564,–,0.0497,0.0683,0.0798,0.0572,–,0.0583,0.0777,0.0441,0.0579,–,0.0432,0.0704
MGESLFKGPRDYNPISSSICHLTNESDGHTTSLYGIGFGPFIITNKHLFRRNNGTLVVQSLHGVFKVKDTTTLQQHLVDGRDMIIIRMPKDFPPFPQKLKFREPQREERICLVTTNFQTFSMSSMVSDTSCTFPSGDGIFWKHWIQTKDGQCGSPLVSTRDGFIVGIHSASNFTNTNNYFTSVPKNFMELLTNQEAQQWVSGWRLNADSVLWGGHKVFMVKPEEPFQPVKEATQL [K120F],0.0998,0.124,0.0943,–,0.0758,0.0783,0.0305,–,0.0733,–,0.0799,–,–,0.0551,0.102,0.0425,–,0.0544,0.0858,–
MGESLFKGPRDYNPISSSICHLTNESDGHTTSLYGIGFGPFIITNKHLFRRNNGTLVVQSLHGVFKVKDTTTLQQHLVDGRDMIIIRMPKDFPPFPQKLKFREPQREERICLVTTNFQTHSMSSMVSDTSCTFPSGDGIFWKHWIQTKDGQCGSPLVSTRDGFIVGIHSASNFTNTNNYFTSVPKNFMELLTNQEAQQWVSGWRLNADSVLWGGHKVFMVKPEEPFQPVKEATQL [K120H],0.127,0.118,0.0457,0.0781,0.0688,–,–,0.0662,0.0679,–,0.0982,–,0.0846,0.0586,0.112,0.0663,0.0524,–,0.0546,–
MGESLFKGPRDYNPISSSICHLTNESDGHTTSLYGIGFGPFIITNKHLFRRNNGTLVVQSLHGVFKVKDTTTLQQHLVDGRDMIIIRMPKDFPPFPQKLKFREPQREERICLVTTNFQTPSMSSMVSDTSCTFPSGDGIFWKHWIQTKDGQCGSPLVSTRDGFIVGIHSASNFTNTNNYFTSVPKNFMELLTNQEAQQWVSGWRLNADSVLWGGHKVFMVKPEEPFQPVKEATQL [K120P],0.0916,0.104,0.0962,–,–,–,–,–,0.0841,0.0772,–,0.0589,–,0.0551,0.101,0.0672,–,–,–,0.0711
MGESLFKGPRDYNPISSSICHLTNESDGHTTSLYGIGFGPFIITNKHLFRRNNGTLVVQSLHGVFKVKDTTTLQQHLVDGRDMIIIRMPKDFPPFPQKLKFREPQREERICLVTTNFQTWSMSSMVSDTSCTFPSGDGIFWKHWIQTKDGQCGSPLVSTRDGFIVGIHSASNFTNTNNYFTSVPKNFMELLTNQEAQQWVSGWRLNADSVLWGGHKVFMVKPEEPFQPVKEATQL [K120W],0.104,0.0895,0.0737,–,–,–,–,–,0.0548,0.0783,–,0.0543,–,–,0.0942,0.0645,0.0472,–,–,–
MGESLFKGPRDYNPISSSICHLTNESDGHTTSLYGIGFGPFIITNKHLFRRNNGTLVVQSLHGVFKVKDTTTLQQHLVDGRDMIIIRMPKDFPPFPQKLKFREPQREERICLVTTNFQTYSMSSMVSDTSCTFPSGDGIFWKHWIQTKDGQCGSPLVSTRDGFIVGIHSASNFTNTNNYFTSVPKNFMELLTNQEAQQWVSGWRLNADSVLWGGHKVFMVKPEEPFQPVKEATQL [K120Y],0.108,0.114,0.0661,–,0.0938,0.0761,0.0607,–,0.0603,0.0871,0.0744,–,–,0.0565,0.0945,0.0609,0.0566,–,–,–
MGESLFKGPRDYNPISSSICHLTNESDGHTTSLYGIGFGPFIITNKHLFRRNNGTLVVQSLHGVFKVKDTTTLQQHLVDGRDMIIIRMPKDFPPFPQKLKFREPQREERICLVTTNFQTKSMSSMVSATSCTFPSGDGIFWKHWIQTKDGQCGSPLVSTRDGFIVGIHSASNFTNTNNYFTSVPKNFMELLTNQEAQQWVSGWRLNADSVLWGGHKVFMVKPEEPFQPVKEATQL [D128A],0.125,0.193,0.0933,–,–,0.108,–,0.0635,0.0701,0.0888,0.113,–,0.088,0.0551,0.13,0.0686,0.0701,–,0.0821,–
